About 540 (0.36%) of roughly 150,000 compounds showed an effect of 50% or more. This is one part of the list.
These compounds were tested on Plasmodium falciparum (assay: Primary screen in NF54 nanoGlo assay, in single point, at 2uM, 72h; a lower Z score goes with more inhibition). Settings: timepoint 72 hour.
Format: functional, Erythrocyte

**Q.** Which results are given for COc1ccccc1NC(=O)Cn1nc2c(N3CCOCC3)nc3ccccc3n2c1=O?
**A.** % Inhibition: -8%; Z score: 1.1

**Q.** What does the source list for CN(C)S(=O)(=O)N(CC#N)CC1CCC(c2ccccc2)CC1 (stereo unspecified)?
**A.** % Inhibition: 7%; Z score: -1.1

**Q.** Which “% Inhibition” value does the source give for CCCN1CCN(C(=O)c2ccnn2C)[C@H]2CS(=O)(=O)C[C@H]21 here?
**A.** -11%

**Q.** And the Z score?
**A.** 1.42

**Q.** How did the “% Inhibition” value turn out when COc1ccc(CCC(=O)N2CCC[C@H]2c2nc3ccccc3[nH]2)cc1 was run?
**A.** 5%

**Q.** And the Z score?
**A.** -0.95

**Q.** Cc1ccc(CN2CC(c3nc(CCN(C)C(=O)C4CCOCC4)no3)C2)s1 was tested. Which “% Inhibition” value did it give?
**A.** -2%

**Q.** And the Z score?
**A.** 0.37

**Q.** Which results are given for CC(C)C(C#N)NC(=O)[C@H]1Cc2ccccc2O[C@@H]1C(F)(F)F (stereo partly specified)?
**A.** % Inhibition: -10%; Z score: 1.38

**Q.** With CCn1cc(CN(C)c2cc(N3CCCC3)nc(N)n2)c(C)n1 as the compound, how does the “% Inhibition” value read?
**A.** 6%

**Q.** And the Z score?
**A.** -0.92

**Q.** What does the source list for Cc1ccc(NC(=O)c2ccc(N3CCCN(Cc4ccccc4)C3=O)cc2)cc1?
**A.** % Inhibition: 7%; Z score: -0.84

**Q.** Which “% Inhibition” value does the source give for Cc1ccc(-c2nc(CNC(=O)Nc3ccc(Cl)cc3)c(C)o2)cc1 here?
**A.** -8%

**Q.** What about the Z score of the same compound?
**A.** 1.09

**Q.** How did the “% Inhibition” value turn out when CC1CC2CCCCC2N1S(=O)(=O)C1CCOCC1 (stereo unspecified) was run?
**A.** -9%

**Q.** What about the Z score of the same compound?
**A.** 1.17

**Q.** What does the source list for Cc1ccc(C2=NOC3(CCN(C(=O)c4ccncc4)CC3)N2)cc1?
**A.** % Inhibition: -14%; Z score: 2.21

**Q.** What does the source list for CCCC[C@@H](CC(=O)O)NC(=O)c1c(F)cccc1OC?
**A.** % Inhibition: -6%; Z score: 0.71

**Q.** For CCOC(=O)c1cccnc1-c1cccc(-c2ccn(CCO)n2)c1, which “% Inhibition” value is on record?
**A.** -6%

**Q.** And the Z score?
**A.** 0.91

**Q.** How did the “% Inhibition” value turn out when CC(C)(CC(=O)NC1CC[S+]([O-])C1)CC(=O)c1ccccc1 (stereo unspecified) was run?
**A.** 1%

**Q.** What about the Z score of the same compound?
**A.** -0.07

**Q.** What does the source list for c1ccc(Cc2cc(C3CCN(Cc4c[nH]cn4)CC3)[nH]n2)cc1?
**A.** % Inhibition: -2%; Z score: 0.27

**Q.** Which results are given for CCc1cc(N2CCC(NCc3cc(C)nn3C)CC2)nc(N(C)C)n1?
**A.** % Inhibition: 6%; Z score: -1.08

**Q.** With COc1ccc(OC)c(-c2csc(Cc3nccn3Cc3ccccc3)n2)c1 as the compound, how does the “% Inhibition” value read?
**A.** 15%

**Q.** What about the Z score of the same compound?
**A.** -2.01

**Q.** Which results are given for CCCc1ncc(C(=O)NC[C@H](O)c2ccco2)s1?
**A.** % Inhibition: -11%; Z score: 2.05

**Q.** How did the “% Inhibition” value turn out when O=c1c2cnc(N3CCc4ccccc4C3)nc2ccn1-c1ccccc1F was run?
**A.** -6%

**Q.** What about the Z score of the same compound?
**A.** 0.99

**Q.** Which “% Inhibition” value does the source give for O=C(CCc1ccc(Cl)s1)NCC1CCCC1O (stereo unspecified) here?
**A.** -9%

**Q.** And the Z score?
**A.** 1.16

**Q.** How did the “% Inhibition” value turn out when CCNc1ncnc2sc(C(=O)N3CCCC[C@@H]3CC)c(C)c12 was run?
**A.** 6%

**Q.** What about the Z score of the same compound?
**A.** -0.87

**Q.** C[C@H](NCc1ncn(C)n1)c1ccc(OC(C)(C)C)cc1 was tested. Which “% Inhibition” value did it give?
**A.** -1%

**Q.** What about the Z score of the same compound?
**A.** 0.1

**Q.** Which results are given for Cc1ccc(CCNC(=O)N2CCOC[C@@H]2CC2CCOCC2)o1?
**A.** % Inhibition: 12%; Z score: -2.25

**Q.** How did the “% Inhibition” value turn out when CCC[C@](C)(N)C(=O)Nc1cncc(Br)c1O was run?
**A.** -20%

**Q.** What about the Z score of the same compound?
**A.** 2.64

**Q.** For CN(c1cccc(O)c1)S(=O)(=O)c1ccc2c(c1)OCCCO2, which “% Inhibition” value is on record?
**A.** -13%

**Q.** What about the Z score of the same compound?
**A.** 2.57

**Q.** Which results are given for CCc1ccc(CNC(=O)[C@@H]2CCCO2)s1?
**A.** % Inhibition: -17%; Z score: 1.9

**Q.** Which “% Inhibition” value does the source give for C[C@@H](C1CCN(C(=O)c2ccc(OC(F)F)cc2)CC1)N1CCN(C)CC1 here?
**A.** -12%

**Q.** What about the Z score of the same compound?
**A.** 1.49

**Q.** Which results are given for NC(N)=Nc1nc(-c2ccc(N3CCCC3=O)cc2)cs1?
**A.** % Inhibition: 0%; Z score: 0.03

**Q.** C#CCNC(=O)CNS(=O)(=O)c1ccc(Br)cc1C was tested. Which “% Inhibition” value did it give?
**A.** -4%

**Q.** And the Z score?
**A.** 0.49

**Q.** For O=C(NCCCOC[C@H]1CCCO1)NCc1noc(-c2cccc(Br)c2)n1, which “% Inhibition” value is on record?
**A.** -7%

**Q.** What about the Z score of the same compound?
**A.** 1.21

**Q.** With CCc1nsc(NCCNC(=O)c2cccc(C)c2)n1 as the compound, how does the “% Inhibition” value read?
**A.** 0%

**Q.** And the Z score?
**A.** -0.01

**Q.** With COc1ccc(CN2CC[C@]3(CO)CN(Cc4ccccc4)C[C@@H]3C2)c(Cl)c1OC as the compound, how does the “% Inhibition” value read?
**A.** 6%

**Q.** And the Z score?
**A.** -1.14

**Q.** How did the “% Inhibition” value turn out when COc1ccc(CCC(=O)N2C[C@@H]3CN(C(=O)C(C)C)C[C@]3(C(=O)N3CCCC3)C2)cc1 was run?
**A.** -18%

**Q.** What about the Z score of the same compound?
**A.** 2.42

**Q.** For CN(C)C[C@H](O)c1cc2n(n1)CCCN(C(=O)c1cc(Cl)ccc1F)C2, which “% Inhibition” value is on record?
**A.** -12%

**Q.** What about the Z score of the same compound?
**A.** 1.55

**Q.** For C=CCn1cc(CNC[C@H](O)c2ccccc2Cl)c(C)n1, which “% Inhibition” value is on record?
**A.** -9%

**Q.** What about the Z score of the same compound?
**A.** 0.98

**Q.** Nc1ccc(OCc2cc(C(F)(F)F)cc(C(F)(F)F)c2)nc1 was tested. Which “% Inhibition” value did it give?
**A.** -11%

**Q.** What about the Z score of the same compound?
**A.** 1.48

**Q.** With CCN(Cc1nc(-c2cnoc2C)cs1)C(=O)OC(C)(C)C as the compound, how does the “% Inhibition” value read?
**A.** -6%

**Q.** What about the Z score of the same compound?
**A.** 1.22

**Q.** How did the “% Inhibition” value turn out when COc1ccc(C2OC(COc3ccccc3)CN(C(=O)c3ccccc3)O2)cc1OC (stereo unspecified) was run?
**A.** -3%

**Q.** And the Z score?
**A.** 0.36

**Q.** What does the source list for Cc1cc(C(=O)Nc2nc(C(=O)N3CCN(c4ccccc4O)CC3)co2)no1?
**A.** % Inhibition: 0%; Z score: -0.01

**Q.** For CC[C@]1(O)CCN(C(=O)Cc2cc3c(cc2Cl)OCCO3)C[C@@H]1O, which “% Inhibition” value is on record?
**A.** 4%

**Q.** And the Z score?
**A.** -0.74

**Q.** How did the “% Inhibition” value turn out when CC1CN(CC2CCCCO2)CC(C)O1 (stereo unspecified) was run?
**A.** -11%

**Q.** And the Z score?
**A.** 0.95

**Q.** What does the source list for CCN1C[C@@H](c2ccccc2)CC2(CCN(S(C)(=O)=O)CC2)C1?
**A.** % Inhibition: -7%; Z score: 0.93

**Q.** With CCCn1cc(CN2CCn3nc(CNc4ncccn4)cc3C2)c(C)n1 as the compound, how does the “% Inhibition” value read?
**A.** -8%

**Q.** And the Z score?
**A.** 1.27

**Q.** How did the “% Inhibition” value turn out when C[C@@H](c1nc(CC(N)=O)nn1-c1ccc(Cl)cc1)N1CCCC1 was run?
**A.** -17%

**Q.** And the Z score?
**A.** 1.96

**Q.** What does the source list for Cc1c(N[C@@H](C(N)=O)c2ccccc2)c(=O)n(-c2ccccc2)n1C?
**A.** % Inhibition: 0%; Z score: -0.01

**Q.** How did the “% Inhibition” value turn out when Cc1c(C(C)C)c(=O)n(-c2ccc(S(=O)(=O)N3CC(=O)Nc4ccccc43)cc2)n1C was run?
**A.** 29%

**Q.** And the Z score?
**A.** -3.96

**Q.** How did the “% Inhibition” value turn out when COc1nc2c(cc1CNC1CCN(C)CC1)C(=O)N(C1CCCC1)C2 was run?
**A.** -10%

**Q.** What about the Z score of the same compound?
**A.** 1.2

**Q.** For Cc1ccc(C(=O)N2CCC(CC(=O)NCCCN3CCN(C4CCCCC4)CC3)CC2)cc1, which “% Inhibition” value is on record?
**A.** 0%

**Q.** What about the Z score of the same compound?
**A.** -0.03

**Q.** For O=C(Cn1cc(N[C@H]2CCc3ccccc32)cn1)NCCO, which “% Inhibition” value is on record?
**A.** -21%

**Q.** And the Z score?
**A.** 3.93

**Q.** With C[C@@H](C(=O)O)n1cc(-c2cc(-c3ccco3)c(C#N)c(N)n2)c2ccccc21 as the compound, how does the “% Inhibition” value read?
**A.** -7%

**Q.** And the Z score?
**A.** 1.12

**Q.** For Cc1cc(NC(=O)[C@H](C)OC(=O)c2[nH]c3ccc(Cl)cc3c2Cl)on1, which “% Inhibition” value is on record?
**A.** -1%

**Q.** What about the Z score of the same compound?
**A.** 0.09

**Q.** With Cc1c(C(=O)N2CCC[C@H](n3ccnn3)C2)cnn1C as the compound, how does the “% Inhibition” value read?
**A.** 0%

**Q.** What about the Z score of the same compound?
**A.** 0.04

**Q.** For COc1cc(CN2CC[C@H](NC(=O)c3n[nH]nc3C)C2)cc(OC)c1, which “% Inhibition” value is on record?
**A.** -8%

**Q.** What about the Z score of the same compound?
**A.** 0.64

Reference: ChEMBL document CHEMBL4888484, “Replenishing the malaria drug discovery pipeline: Screening and hit evaluation of the MMV Hit Generation Library 1 (HGL1) against asexual blood stage Plasmodium falciparum ,using a nano luciferase reporter read-out” (2022)
